PubChem BioAssay AID1347165 (National Center for Advancing Translational Sciences (NCATS), 2019)
Hit rate of the full screen: of about 220,000 compounds, about 5,700 (2.6%) were called active. The shares of active, inactive and inconclusive entries below differ from those in the screen. The call rests on the fitted dose curve; in most records, active means well fitted inhibition curve with a large enough effect; inconclusive means small, poorly fitted or top-dose-only effect; inactive means no such curve, though single readings can be large or run the other way. Where the call is inconclusive, the potency comes from a doubtful curve fit.

These compounds were tested against Lysine-specific demethylase 5B (Homo sapiens) (UniProt Q9UGL1) (assay: Primary screen for KDM5B Histone Demethylases FDH-coupled qHTS). Details: FDH-coupled NADH fluorescence (FDH is formaldehyde dehydrogenase); activity change, negative = inhibition: at 57.7 µM (top of the series) unless noted.
Sequence of UniProt Q9UGL1 (Q9UGL1 whole entry, looked up): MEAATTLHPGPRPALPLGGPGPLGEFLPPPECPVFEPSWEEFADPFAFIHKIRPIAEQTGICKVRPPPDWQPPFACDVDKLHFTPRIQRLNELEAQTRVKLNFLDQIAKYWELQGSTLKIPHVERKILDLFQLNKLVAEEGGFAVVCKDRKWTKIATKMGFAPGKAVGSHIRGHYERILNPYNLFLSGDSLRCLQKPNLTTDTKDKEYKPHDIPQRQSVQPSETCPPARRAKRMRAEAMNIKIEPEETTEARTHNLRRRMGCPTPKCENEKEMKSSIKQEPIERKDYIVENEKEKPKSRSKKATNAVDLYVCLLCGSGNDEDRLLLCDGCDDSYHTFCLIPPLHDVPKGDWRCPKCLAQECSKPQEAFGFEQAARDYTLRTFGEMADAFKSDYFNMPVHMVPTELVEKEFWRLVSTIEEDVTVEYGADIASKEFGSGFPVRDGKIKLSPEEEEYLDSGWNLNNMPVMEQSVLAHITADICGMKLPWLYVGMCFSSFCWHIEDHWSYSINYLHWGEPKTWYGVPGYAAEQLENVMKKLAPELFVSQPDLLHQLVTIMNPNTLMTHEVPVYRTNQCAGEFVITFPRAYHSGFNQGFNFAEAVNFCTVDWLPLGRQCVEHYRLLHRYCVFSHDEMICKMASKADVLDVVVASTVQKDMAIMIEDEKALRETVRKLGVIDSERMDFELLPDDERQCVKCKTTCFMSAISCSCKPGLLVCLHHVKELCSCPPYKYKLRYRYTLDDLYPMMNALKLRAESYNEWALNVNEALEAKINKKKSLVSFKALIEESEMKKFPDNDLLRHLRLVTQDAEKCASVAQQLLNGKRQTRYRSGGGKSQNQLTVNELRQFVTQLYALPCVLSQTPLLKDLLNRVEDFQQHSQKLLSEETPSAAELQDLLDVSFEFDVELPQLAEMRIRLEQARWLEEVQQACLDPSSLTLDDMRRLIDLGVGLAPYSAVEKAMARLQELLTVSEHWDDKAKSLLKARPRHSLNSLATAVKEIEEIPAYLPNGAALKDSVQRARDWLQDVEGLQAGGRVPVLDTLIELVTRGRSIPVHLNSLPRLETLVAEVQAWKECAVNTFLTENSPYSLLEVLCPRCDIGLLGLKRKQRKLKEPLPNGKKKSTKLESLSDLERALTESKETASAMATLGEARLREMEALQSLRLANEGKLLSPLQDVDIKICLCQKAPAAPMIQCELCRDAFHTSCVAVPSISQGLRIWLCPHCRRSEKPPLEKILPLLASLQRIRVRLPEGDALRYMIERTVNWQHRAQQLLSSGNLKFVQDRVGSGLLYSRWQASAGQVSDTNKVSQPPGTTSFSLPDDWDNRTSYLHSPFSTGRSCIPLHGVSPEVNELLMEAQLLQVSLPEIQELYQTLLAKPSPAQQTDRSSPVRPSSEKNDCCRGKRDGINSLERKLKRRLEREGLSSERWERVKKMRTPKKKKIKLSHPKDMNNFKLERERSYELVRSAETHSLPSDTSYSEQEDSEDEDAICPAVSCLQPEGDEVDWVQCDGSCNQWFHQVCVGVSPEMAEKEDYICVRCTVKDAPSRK
Summary of the method: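 Compound dilutions met 200 nM (final) KDM5BΔAP for 10 min at room temperature before substrate addition. The substrate mix held 12.5 µM H3K4me3 with cofactors 25 µM α-ketoglutarate and 50 µM Fe²⁺. NADH signal gain over 30 min defined activity.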
Further: nearly all actives have a fitted effect of over 70% in size.
Potency means the concentration at half of the fitted maximal effect; tags describe the fitted curve by direction and shape.
Wherever activity change, negative = inhibition is given: 0% is about no effect.

**Q.** How did the “activity change, negative = inhibition” value turn out when Cc1nc2ccc(NC(=O)CC3C=CCC3)cc2s1 (stereo not drawn) was run?
**A.** inactive: 27.8%

**Q.** How did the Potency turn out when O=C(NCCCN1CCCC1=O)c1ccc2c(c1)[nH]c(=O)n2C1CCC(O)CC1 (stereo not drawn) was run?
**A.** inconclusive: 39.8 µM [inhibitor, single point]

**Q.** CC(=O)c1c(C)n([O-])c2ccccc2[n+]1=O was tested. Which Potency did it give?
**A.** inconclusive: 31.6 µM [inhibitor, single point]

**Q.** For CCCCc1c(C)c2ccc(OCC(C)=O)c(C)c2oc1=O, which Potency is on record?
**A.** inconclusive: 22.4 µM [inhibitor, partial curve, poor fit]

**Q.** NC(=O)c1ccsc1NS(=O)(=O)c1ccc([N+](=O)[O-])cc1 was tested. Which “activity change, negative = inhibition” value did it give?
**A.** inactive: -7.72%

**Q.** For CC(=O)c1ccc(NC(=O)CCc2c(C)nc3c(c2C)c(=O)n(C)c(=O)n3C)cc1, which Potency is on record?
**A.** inconclusive: 35.5 µM [inhibitor, single point]

**Q.** How did the Potency turn out when O=C(NC1CCCCC1)N[C@H]1CCN2C(=O)c3cc(-c4cccs4)ccc3NC(=O)[C@H]12 was run?
**A.** inconclusive: 31.6 µM [inhibitor, single point]

**Q.** Which Potency does the source give for Cn1cccc1CN1CC[C@H]2C(=O)NCCCCCCN(Cc3ccncc3)[C@@H]2C1 here?
**A.** inconclusive: 22.4 µM [inhibitor, partial curve, poor fit]

**Q.** With Cc1cn2nc(-c3nc(C4CCCN(C(=O)c5ccccc5F)C4)no3)cc2c(=O)[nH]1 (stereo not drawn) as the compound, how does the Potency read?
**A.** active: 28.2 µM

**Q.** How did the Potency turn out when O=C1CC2CCN(Cc3ccc(F)cc3)CC2CCN1 (stereo not drawn) was run?
**A.** inconclusive: 56.2 µM [inhibitor, partial curve, poor fit]

**Q.** With CC(C)CCN1CCNC(=O)C1CC(=O)N(C)Cc1nncn1C(C)C (stereo not drawn) as the compound, how does the Potency read?
**A.** inconclusive: 20 µM [inhibitor, partial curve, poor fit]

**Q.** With Cc1ccccc1Nc1nn2c(=O)c3ccc(C(=O)NCc4ccccc4)cc3nc2s1 as the compound, how does the Potency read?
**A.** inconclusive: 39.8 µM [inhibitor, partial curve, poor fit]

**Q.** How did the “activity change, negative = inhibition” value turn out when CCCC(=O)N1Cc2ccccc2CC2(CCCN(CCC)C2)C1 (stereo not drawn) was run?
**A.** inactive: 10.1% [at 149 µM]

**Q.** For N#C/C(=C/c1ccncc1)c1nc2ccccc2c(=O)[nH]1, which Potency is on record?
**A.** inconclusive: 39.8 µM [inhibitor, partial curve, poor fit]

**Q.** CCN1CCCC1CNC(=O)c1nn(Cc2ccccc2)c(=O)c2ccccc12 (stereo not drawn) was tested. Which “activity change, negative = inhibition” value did it give?
**A.** inactive: 5.1%

**Q.** With CCCOc1ccc(-c2nc(C#N)c(NCCc3ccc(OC)c(OC)c3)o2)cc1 as the compound, how does the Potency read?
**A.** inconclusive: 8.91 µM [inhibitor, full curve, poor fit]

**Q.** For COc1cccc(Cn2c(=O)n(-c3cccc(Cl)c3)c(=O)c3c4c(sc32)CN(C(C)=O)CC4)c1, which Potency is on record?
**A.** inconclusive: 28.2 µM [inhibitor, single point]

**Q.** With CNC(=O)CCn1ncc2cc(OCc3ccccc3-c3cc(F)ccc3C)ccc21 as the compound, how does the Potency read?
**A.** inconclusive: 39.8 µM [inhibitor, single point]

**Q.** For CCOc1ccc(NC(=O)CN2CCN(S(=O)(=O)c3ccc(OC)cc3)CC2)cc1, which activity change, negative = inhibition is on record?
**A.** inconclusive: -33% [inhibitor]

**Q.** For Cc1ccc(Cl)cc1NC(=O)CCc1ncc(-c2ccc(F)cc2)o1, which “activity change, negative = inhibition” value is on record?
**A.** inactive: 11.6%

**Q.** CCc1ccc(NC(=O)Cn2c(=O)n(CCCCC(=O)NCc3ccccc3Cl)c(=O)c3ccccc32)cc1 was tested. Which Potency did it give?
**A.** inconclusive: 28.2 µM [inhibitor, single point]

**Q.** Which Potency does the source give for Cc1ccc(/C=C/C(=O)c2ccc(-c3ccccc3)cc2)o1 here?
**A.** inconclusive: 14.1 µM [inhibitor, partial curve, poor fit]

**Q.** CCN1CCN(CCOc2ccc3c(=O)c(-c4ccccc4)coc3c2)CC1 was tested. Which “activity change, negative = inhibition” value did it give?
**A.** inactive: 1.76%

**Q.** With CCc1nc2c(cnn2-c2ccc(C)cc2)c(=O)n1Cc1ccccc1 as the compound, how does the Potency read?
**A.** inconclusive: 12.6 µM [inhibitor, partial curve, poor fit]

**Q.** Which Potency does the source give for CCc1nnc(NS(=O)(=O)c2ccc(NC(=S)NC(=O)c3ccncc3)cc2)s1 here?
**A.** inconclusive: 14.1 µM [inhibitor, single point]

**Q.** How did the “activity change, negative = inhibition” value turn out when O=C(NCc1cccc(Cl)c1)N1CC=C(c2ccc(F)cc2)CC1 was run?
**A.** inactive: -7.23%

**Q.** Which Potency does the source give for CC(C)c1noc(-c2ccn3c(CNC(=O)c4ccc(N(C)C)cc4)nnc3c2)n1 here?
**A.** active: 22.4 µM

**Q.** CCCNc1ccc2nnc(C)n2n1 was tested. Which “activity change, negative = inhibition” value did it give?
**A.** inactive: -29.1%

**Q.** With CC(C)c1cccc(NC(=O)CCn2ccn3nc4c(c3c2=O)CCCC4)c1 as the compound, how does the “activity change, negative = inhibition” value read?
**A.** inactive: -6.49%

**Q.** How did the Potency turn out when O=C(O)CCCCCNC(=O)OCC1c2ccccc2-c2ccccc21 was run?
**A.** inconclusive: 14.1 µM [inhibitor, partial curve, poor fit]

**Q.** For O=C(OCc1cccc([N+](=O)[O-])c1)c1c2c(nc3ccccc13)CCCCC2, which “activity change, negative = inhibition” value is on record?
**A.** inactive: -9.82%

**Q.** With COc1ccc2c(c1)CCc1sc(NC(=O)c3cccc(Br)c3)nc1-2 as the compound, how does the Potency read?
**A.** inconclusive: 25.1 µM [inhibitor, partial curve, poor fit]

**Q.** How did the “activity change, negative = inhibition” value turn out when C=CCNC(=O)NC(=O)CNc1ccccc1C#N was run?
**A.** inactive: -23.7%

**Q.** Which Potency does the source give for N#Cc1c(N)n[nH]c1CCCNC(=O)c1ccccc1-c1ncc(-c2ccccc2)o1 here?
**A.** inconclusive: 31.6 µM [inhibitor, partial curve, poor fit]

**Q.** With Cc1ccc(NC(=O)c2oc3ccccc3c2NC(=O)Cc2ccccc2)cc1 as the compound, how does the Potency read?
**A.** inconclusive: 25.1 µM [inhibitor, partial curve, poor fit]

**Q.** How did the Potency turn out when CCOc1ccc(CNC(=O)C2CCN(c3nnc(-n4c(C)ccc4C)s3)CC2)cc1 was run?
**A.** inconclusive: 1.41 µM [inhibitor, partial curve, poor fit]

**Q.** With O=C(Cc1ccccn1)N1CCC(N2CCCCCC2=O)CC1 as the compound, how does the “activity change, negative = inhibition” value read?
**A.** inactive: -4.91% [at 86.2 µM]

**Q.** How did the Potency turn out when Cc1ccc2cc(/C=C/C(=O)c3c(C)coc3C)c(Cl)nc2c1 was run?
**A.** inconclusive: 35.5 µM [inhibitor, partial curve, poor fit]

**Q.** COc1ccc(-c2[nH]nc3ncc(-c4ccccc4F)nc23)c(C)c1 was tested. Which Potency did it give?
**A.** inconclusive: 39.8 µM [inhibitor, single point]

**Q.** How did the Potency turn out when O=C(Nc1ccc(F)cc1F)c1cc(=O)c2ccccc2o1 was run?
**A.** inconclusive: 39.8 µM [inhibitor, single point]

**Q.** Which “activity change, negative = inhibition” value does the source give for Cc1ccc(OCCSc2nnc(COc3ccc(Cl)cc3)n2C)cc1 here?
**A.** inactive: -17.1%

**Q.** With O=C(CSc1cn(CC(=O)N2CCCCC2)c2ccccc12)NCc1ccccc1 as the compound, how does the Potency read?
**A.** inconclusive: 1.58 µM [inhibitor, full curve, poor fit]

**Q.** How did the Potency turn out when COCc1cc(C)nc2c1C(=O)NC(c1ccc(C)cc1)N2Cc1ccccc1 (stereo not drawn) was run?
**A.** inconclusive: 2.82 µM [inhibitor, partial curve, poor fit]
